Results as given in PubChem BioAssay (Tox21).
Where “and” joins values, the source holds several entries; their conditions need not be identical. Equal values may be shown once. Inconclusive results, whose numbers are uncertain, are shown with a selection of clear calls. For some assays here: Potencies of inconclusive entries are doubtful fits and often do not repeat. The source holds several records for some structures; these can differ, active in one and inactive in another. Calls of active or inactive are those of the source. Unless noted, the call rests on the fitted dose curve; in most records, active means well fitted curve in the direction sought with a large enough effect in the repeat runs; inconclusive means weak or mixed curves; inactive means no such curve, though single readings can be large; an effect the other way counts as inactive or inconclusive.

Key:
[1] = qHTS assay to identify small molecule that activate the aryl hydrocarbon receptor (AhR) signaling pathway - cell viability counter screen (AID 743086); further: nearly all actives have a fitted effect of over 45% in size; further: potency means the concentration at half of the fitted maximal effect
Summary of the method: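 Cytotoxicity counter screen: CellTiter-Fluor signal (30 min, 37 C) in 4000 HepG2 cells/well carrying the DRE-luciferase reporter, following 24 h compound exposure at 37 C.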

[2] = molecular target: Peroxisome proliferator-activated receptor gamma (Homo sapiens) (UniProt P37231); assay: qHTS assay to identify small molecule agonists of the peroxisome proliferator-activated receptor gamma (PPARg) signaling pathway (AID 743094; active means well fitted activation curve with a large enough effect in the signal ratio in the repeat runs, not every such curve was filed as active; inconclusive means weak or mixed curves, or effect the other way; inactive means no such curve, though single readings can be large or run the other way; the % refers to the signal ratio; further: on the % scale 0 is the no-effect control and ±100 the full control effect); settings: HEK293H PPARg-UAS-bla, beta-lactamase FRET ratio, 17 h; activation: at 57 µM (top of the series) unless noted
UniProt P37231, sequence (P37231 whole entry, looked up): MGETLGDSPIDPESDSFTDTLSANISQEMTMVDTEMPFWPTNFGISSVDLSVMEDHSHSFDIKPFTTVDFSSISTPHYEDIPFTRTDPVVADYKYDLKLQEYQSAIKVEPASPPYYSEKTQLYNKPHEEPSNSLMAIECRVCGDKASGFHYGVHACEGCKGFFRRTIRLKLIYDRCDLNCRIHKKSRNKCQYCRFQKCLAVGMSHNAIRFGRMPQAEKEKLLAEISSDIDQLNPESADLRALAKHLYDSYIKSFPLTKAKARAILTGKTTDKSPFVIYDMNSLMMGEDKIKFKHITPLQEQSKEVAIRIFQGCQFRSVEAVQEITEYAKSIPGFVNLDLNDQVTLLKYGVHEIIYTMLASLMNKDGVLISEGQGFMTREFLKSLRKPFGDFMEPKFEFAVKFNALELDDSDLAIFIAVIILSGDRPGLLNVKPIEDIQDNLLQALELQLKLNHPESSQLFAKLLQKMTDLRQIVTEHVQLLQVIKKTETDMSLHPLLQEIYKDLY
Summary of the method: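 Agonism was assessed in a beta-lactamase reporter system, HEK293H cells with a stably integrated UAS-bla construct under PPARg control; the 17 h treatment at 37C preceded a 1 h room-temperature FRET substrate read.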

[3] = molecular target: Peroxisome proliferator-activated receptor gamma (Homo sapiens) (UniProt P37231); assay: qHTS assay to identify small molecule antagonists of the peroxisome proliferator-activated receptor gamma (PPARg) signaling pathway (AID 743191; calls by dose curve; further: potency means the concentration at half of the fitted maximal effect; nearly all actives have a fitted effect of over 30% in size); settings: HEK293H PPARg-UAS-bla, beta-lactamase ratio, antagonist, 17 h; ratio activity, negative = inhibition: at 62.6 µM (top of the series) unless noted
Summary of the method: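 Beta-lactamase reporter under UAS control in HEK293H PPARg-bla cells; compound treatment 17 h at 37C. Read-out: fluorescence intensity after 1 h room-temperature incubation with LiveBLAzer B/G FRET substrate.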

[4] = qHTS assay to identify small molecule antagonists of the peroxisome proliferator-activated receptor gamma (PPARg) signaling pathway - cell viability counter screen (AID 743194); settings: PPARg-bla HEK293H viability, CellTiter-Glo luminescence, 17 h, co-treated with 50 nM rosiglitazone; activity change, negative = cytotoxicity: at 62.6 µM (top of the series) unless noted; further: potency means the concentration at half of the fitted maximal effect; nearly all actives have a fitted effect of over 55% in size
Summary of the method: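 Viability was measured as CellTiter-Glo luminescence in GeneBLAzer PPARg UAS-bla HEK293H cells. These cells had been exposed 17 h at 37 C to compounds together with rosiglitazone at 50 nM final, with the beta-lactamase readout taken in the same wells.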

[5] = qHTS assay for small molecule agonists of the antioxidant response element (ARE) signaling pathway - cell viability counter screen (AID 743203; calls by dose curve; further: potency means the concentration at half of the fitted maximal effect; nearly all actives have a fitted effect of over 55% in size); settings: ARE-bla HepG2 viability, CellTiter-Glo luminescence, 16 h; viability change, negative = cytotoxic: at 73.3 µM (top of the series)
Summary of the method: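 ATP content via CellTiter-Glo luminescence served as the viability measure. Cells: ARE-bla HepG2, 2,000 per well. Exposure: 16 hrs, 37C/5% CO2.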

[6] = qHTS assay for small molecule activators of the heat shock response signaling pathway - cell viability counter screen (AID 743209); settings: HSE-bla HeLa viability, CellTiter-Glo luminescence, 5 h; activity change, negative = cytotoxicity: at 62.6 µM (top of the series) unless noted; further: potency means the concentration at half of the fitted maximal effect; nearly all actives have a fitted effect of over 50% in size
Summary of the method: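 Compounds dissolved in DMSO were added to overnight-plated HSE-bla HeLa cells and left 5 h at 37 C. Cell viability was quantified by luminescence using CellTiter-Glo.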

[7] = qHTS assay to identify small molecule agonists of the peroxisome proliferator-activated receptor delta (PPARd) signaling pathway - cell viability counter screen (AID 743211); settings: PPARd-bla HEK293H viability, CellTiter-Glo luminescence, 17 h; activity change, negative = cytotoxicity: at 62.6 µM (top of the series) unless noted; further: nearly all actives have a fitted effect of over 55% in size; further: potency means the concentration at half of the fitted maximal effect; on activity change, negative = cytotoxicity: on the % scale 0 is the no-effect control and ±100 the full control effect
Summary of the method: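 Following 5 h plating at 37 C and 5% CO2, PPARd UAS-bla HEK293H cells took up test compounds for 17 h. Viability was quantified by luminescence 30 min after CellTiter-Glo addition at room temperature.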

[8] = qHTS assay to identify small molecule antagonists of the peroxisome proliferator-activated receptor delta (PPARd) signaling pathway - cell viability counter screen (AID 743213); settings: PPARd-bla HEK293H viability, CellTiter-Glo luminescence, 17 h; viability change, negative = cytotoxic: at 62 µM (top of the series) unless noted; further: potency means the concentration at half of the fitted maximal effect; nearly all actives have a fitted effect of over 50% in size
Summary of the method: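 CellTiter-Glo was added to PPARd-bla HEK293H wells following 17 h compound treatment in the presence of 300 nM L165041. Luminescence was recorded after 30 min at room temperature.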

[9] = qHTS assay to identify small molecule agonists of the farnesoid-X-receptor (FXR) signaling pathway - cell viability counter screen (AID 743218); settings: FXR-bla HEK293T viability, CellTiter-Glo luminescence, 16 h; viability change, negative = cytotoxic: at 62.6 µM (top of the series) unless noted; further: nearly all actives have a fitted effect of over 45% in size; further: potency means the concentration at half of the fitted maximal effect
Summary of the method: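 Quantitative HTS counter screen measuring ATP-based viability via CellTiter-Glo luminescence in HEK 293T cells carrying a UAS-driven beta-lactamase reporter, after 16 h compound exposure at 37 C.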

[10] = qHTS assay to identify small molecule antagonists of the farnesoid-X-receptor (FXR) signaling pathway - cell viability counter screen (AID 743221; active means well fitted cell-killing curve with a large enough effect in the repeat runs, not every such curve was filed as active; inconclusive means weak or mixed curves, or effect the other way; inactive means no such curve, though single readings can be large or run the other way; further: nearly all actives have a fitted effect of over 50% in size; further: potency means the concentration at half of the fitted maximal effect); settings: FXR-bla HEK293T viability, CellTiter-Glo luminescence, 16 h; activity change, negative = cytotoxicity: at 62.6 µM (top of the series) unless noted
Summary of the method: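 Compound effects on cell number were measured as CellTiter-Glo luminescence in HEK 293T cells expressing FXR-UAS-bla, after 16 h at 37 C with 50 uM CDCA (final).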

[11] = molecular target: Vitamin D3 receptor (Homo sapiens) (UniProt P11473); assay: qHTS assay to identify small molecule antagonists of the vitamin D receptor (VDR) signaling pathway (AID 743223; active means well fitted inhibition curve with a large enough effect in the signal ratio in the repeat runs, not every such curve was filed as active; inconclusive means weak or mixed curves, or effect the other way; inactive means no such curve, though single readings can be large or run the other way; the % refers to the signal ratio; further: on the % scale 0 is the no-effect control and ±100 the full control effect); settings: VDR-UAS-bla HEK293T, beta-lactamase FRET ratio, 16 h; activity change, negative = inhibition: at 61 µM (top of the series) unless noted
UniProt P11473, sequence (P11473 whole entry, looked up): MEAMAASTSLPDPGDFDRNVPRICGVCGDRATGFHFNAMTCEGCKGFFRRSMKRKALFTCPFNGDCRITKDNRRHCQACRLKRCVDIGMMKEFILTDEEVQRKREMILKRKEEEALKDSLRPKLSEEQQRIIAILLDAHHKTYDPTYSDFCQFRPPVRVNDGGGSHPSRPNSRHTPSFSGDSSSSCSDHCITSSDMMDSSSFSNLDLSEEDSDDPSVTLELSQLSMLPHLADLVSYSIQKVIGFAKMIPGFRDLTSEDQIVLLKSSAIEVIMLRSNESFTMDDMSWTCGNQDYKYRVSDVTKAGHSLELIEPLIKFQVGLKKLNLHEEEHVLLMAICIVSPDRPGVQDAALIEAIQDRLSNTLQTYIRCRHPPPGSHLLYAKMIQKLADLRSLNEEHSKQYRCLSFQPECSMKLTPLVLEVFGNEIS
Summary of the method: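 Beta-lactamase activity in VDR-bla cells is measured by FRET substrate fluorescence (2 h, room temperature) after cells spend 16 h at 37C with test compound and 3 nM final 1alpha,25-dihydroxyvitamin D3.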

[12] = qHTS assay to identify small molecule agonists of the vitamin D receptor (VDR) signaling pathway - cell viability counter screen (AID 743224); settings: VDR-bla HEK293T viability, CellTiter-Glo luminescence, 16 h; activity change, negative = cytotoxicity: at 62.6 µM (top of the series); further: potency means the concentration at half of the fitted maximal effect; nearly all actives have a fitted effect of over 50% in size
Summary of the method: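 CellTiter-Glo viability readout on VDR-bla cells, measured after 16 h of compound treatment at 37C in the same wells.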

[13] = qHTS assay for small molecule agonists of the antioxidant response element (ARE) signaling pathway (AID 743202; active means well fitted activation curve with a large enough effect in the signal ratio in the repeat runs, not every such curve was filed as active; inconclusive means weak or mixed curves, or effect the other way; inactive means no such curve, though single readings can be large or run the other way; the % refers to the signal ratio; further: potency means the concentration at half of the fitted maximal effect); settings: HepG2 ARE-bla reporter, beta-lactamase FRET, 16 h; activation: at 73.3 µM (top of the series) unless noted
Summary of the method: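 After 16 hours of compound treatment at 37 C, HepG2 cells with a stably integrated ARE-driven beta-lactamase reporter were loaded 2 hours at room temperature with LiveBLAzer B/G FRET substrate and fluorescence intensity measured.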

[14] = molecular target: Peroxisome proliferator-activated receptor delta (Homo sapiens) (UniProt Q03181); assay: qHTS assay to identify small molecule antagonists of the peroxisome proliferator-activated receptor delta (PPARd) signaling pathway (AID 743215; active means well fitted inhibition curve with a large enough effect in the signal ratio in the repeat runs, not every such curve was filed as active; inconclusive means weak or mixed curves, or effect the other way; inactive means no such curve, though single readings can be large or run the other way; the % refers to the signal ratio;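 further: cells stimulated with agonist L165041 at 300 nM final during compound exposure; potency means the concentration at half of the fitted maximal effect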); settings: HEK293H PPARd-UAS-bla, beta-lactamase FRET ratio, antagonist, 17 h; ratio activity, negative = inhibition: at 62 µM (top of the series) unless noted
UniProt Q03181, sequence (Q03181 whole entry, looked up): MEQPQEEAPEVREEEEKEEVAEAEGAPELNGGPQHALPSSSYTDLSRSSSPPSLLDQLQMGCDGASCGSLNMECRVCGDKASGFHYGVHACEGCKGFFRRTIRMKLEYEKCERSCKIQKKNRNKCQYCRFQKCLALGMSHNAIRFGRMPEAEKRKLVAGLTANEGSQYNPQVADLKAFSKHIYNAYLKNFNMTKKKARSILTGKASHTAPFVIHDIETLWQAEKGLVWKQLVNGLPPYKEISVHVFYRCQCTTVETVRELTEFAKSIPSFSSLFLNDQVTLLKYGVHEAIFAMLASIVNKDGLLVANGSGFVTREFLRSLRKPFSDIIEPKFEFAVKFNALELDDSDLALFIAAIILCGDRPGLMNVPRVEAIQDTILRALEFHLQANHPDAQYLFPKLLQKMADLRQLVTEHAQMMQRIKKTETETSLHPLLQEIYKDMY
Summary of the method: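 Here, a reporter line (HEK293H, beta-lactamase under a UAS) measures PPARd signaling. Compounds are tested against agonist L165041 at 300 nM final concentration over 17 h at 37 C, with fluorescence read after substrate.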

[15] = molecular target: Bile acid receptor (Homo sapiens) (UniProt Q96RI1); assay: qHTS assay to identify small molecule agonists of the farnesoid-X-receptor (FXR) signaling pathway (AID 743220; active means well fitted activation curve with a large enough effect in the signal ratio in the repeat runs, not every such curve was filed as active; inconclusive means weak or mixed curves, or effect the other way; the % refers to the signal ratio; further: on the % scale 0 is the no-effect control and ±100 the full control effect); settings: HEK293T FXR-UAS-bla, beta-lactamase FRET ratio, 16 h; activation: at 62.6 µM (top of the series) unless noted
UniProt Q96RI1, sequence (Q96RI1 whole entry, looked up): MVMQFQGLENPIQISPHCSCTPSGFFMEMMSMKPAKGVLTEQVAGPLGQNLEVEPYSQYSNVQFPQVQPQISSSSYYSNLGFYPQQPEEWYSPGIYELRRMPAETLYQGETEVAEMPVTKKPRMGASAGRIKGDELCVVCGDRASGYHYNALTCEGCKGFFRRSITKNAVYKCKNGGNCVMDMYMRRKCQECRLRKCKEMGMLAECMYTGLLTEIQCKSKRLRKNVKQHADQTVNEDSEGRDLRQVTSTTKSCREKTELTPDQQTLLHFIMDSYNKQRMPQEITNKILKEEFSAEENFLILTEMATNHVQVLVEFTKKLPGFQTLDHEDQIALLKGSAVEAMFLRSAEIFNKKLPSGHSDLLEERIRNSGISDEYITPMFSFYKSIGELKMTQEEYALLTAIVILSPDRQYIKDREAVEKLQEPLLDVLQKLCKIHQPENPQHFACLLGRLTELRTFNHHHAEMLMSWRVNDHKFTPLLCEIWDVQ
Summary of the method: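 FXR-UAS-bla HEK 293T cells carrying a UAS-driven beta-lactamase reporter were plated for 5 h at 37C/5% CO2, then exposed to DMSO-dissolved Tox21 10K compounds for 16 h at 37C. A LiveBLAzer B/G FRET substrate was loaded for 2 h at room temperature before fluorescence reading.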

[16] = molecular target: Vitamin D3 receptor (Homo sapiens) (UniProt P11473); assay: qHTS assay to identify small molecule agonists of the vitamin D receptor (VDR) signaling pathway (AID 743222; calls by dose curve; further: potency means the concentration at half of the fitted maximal effect); settings: HEK293T VDR-UAS-bla, beta-lactamase FRET ratio, 16 h; activation: at 63.5 µM (top of the series) unless noted
Summary of the method: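 Tox21 cell reporter format: VDR-bla line, 16 h compound exposure in 5% CO2 at 37C, then fluorescence intensity after 2 h with LiveBLAzer B/G FRET substrate.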
Tags describe the fitted curve by direction and shape or compound fluorescence and quenching.

Compound	Potency [1]	activation [2]	Potency [3]	Potency [4]	Potency [5]	Potency [6]	Potency [7]	Potency [8]	Potency [9]	Potency [10]	activity change, negative = cytotoxicity [10]	activity change, negative = inhibition [11]	Potency [12]	Potency [13]	Potency [14]	activation [15]	Potency [16]
CCCCCCc1ccc(O)cc1O	inconclusive: 68.6 µM [falling, partial curve, poor fit]	inconclusive: -17.4% and inconclusive: -16.3%	inconclusive: 49.1 µM and inconclusive: 49 µM and active: 11.9 µM	inconclusive: 61.8 µM [cytotoxic, partial curve, poor fit] and inconclusive: 54.9 µM [cytotoxic, single point]	inconclusive: 68.8 µM [cytotoxic, single point] and inconclusive: 68.6 µM [cytotoxic, single point]	inconclusive: 55.1 µM [cytotoxic, single point] and inconclusive: 54.9 µM [cytotoxic, single point]	active: 43.8 µM and inconclusive: 49 µM [cytotoxic] and inactive	inconclusive: 49.1 µM [cytotoxic, partial curve, poor fit] and inconclusive: 61.6 µM [cytotoxic]	inactive	inconclusive: 55.1 µM [falling, single point]	inconclusive: 1.76%	inconclusive: -32.2% and inconclusive: -55.3%	inconclusive: 55.1 µM [cytotoxic] and active: 38.9 µM				
O=C(O)c1ccc(-n2nc(-c3ccccc3O)nc2-c2ccccc2O)cc1	inactive	inconclusive: -15.1%	inconclusive: 5.96 µM [rising, full curve]	inconclusive: 15 µM [cytotoxic, partial curve, poor fit]					inconclusive: 4.22 µM [cytotoxic, full curve, poor fit]				inconclusive: 2.98 µM [cytotoxic, partial curve, poor fit]	inconclusive: 1.33 µM [rising, full curve]	inconclusive: 13.3 µM		
Oc1ccc(C(c2ccc(O)cc2)C(Cl)(Cl)Cl)cc1	inconclusive: 60.9 µM [falling, single point]	inconclusive: -11.4% and inconclusive: 1.49%		active: 43.5 µM and inconclusive: 38.9 µM [cytotoxic]			inconclusive: 48.8 µM [cytotoxic, partial curve] and active: 54.9 µM	inconclusive: 48.8 µM [cytotoxic, partial curve, poor fit] and active: 38.9 µM	inconclusive: 54.7 µM [cytotoxic, single point] and inconclusive: 54.9 µM [cytotoxic, single point]	inconclusive: 54.7 µM [falling, single point]			inconclusive: 61.4 µM [cytotoxic, single point] and inconclusive: 54.9 µM [cytotoxic, single point]	inconclusive: 68.3 µM [falling, single point] and inconclusive: 68.6 µM [falling, single point]		inconclusive: 2.28% and inconclusive: -1.23%	inconclusive: 54.9 µM [rising, partial curve, poor fit]
